# Reference: PubChem BioAssay AID504466 (National Center for Advancing Translational Sciences (NCATS), 2011)
# In all, about 330,000 compounds went through this assay and about 4,200 (1.3%) were called active. Inconclusive results, whose numbers are uncertain, are shown with a selection of clear calls. Calls follow the shape of the dose curve; as a rule, active = well fitted activation curve with a large enough effect; inconclusive = small, poorly fitted or top-dose-only effect; inactive = no such curve, though single readings can be large or run the other way. Potencies beside an inconclusive call are fits to weak or partial responses and may not hold up.
# Assay: qHTS screen for small molecules that induce genotoxicity in human embryonic kidney (HEK293T) cells expressing luciferase-tagged ELG1; also: nearly all actives have a fitted effect of over 60% in size; as to activity change, positive = activation: % of control where 0% means no effect
# Settings: HEK293T ELG1-luciferase reporter, luminescence, 16 h; series mostly up to 46 µM; activity change, positive = activation: at the top concentration
# Summary of the method: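 16 hr compound incubation (37 °C, 5% CO2) of HEK293T cells carrying luciferase-tagged ELG1; luciferase then measured by ONE-Glo luminescence after 30 min at RT.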
# Potency is read from the fitted curve at half-maximal effect; tags tell the direction and shape of the fitted curve.
Compound,Potency,"activity change, positive = activation"
O=C(NC1CCCCC1)c1ccc(N2CCCC2=O)cc1,"inconclusive: 18.4 µM [activator, partial curve, poor fit]",–
Cc1ccc(Cl)cc1NC(=O)C(=O)N/N=C/c1ccc2c(c1)OCO2,"inconclusive: 29.1 µM [activator, single point]",–
O=C(OCC(=O)N1CCc2ccccc21)c1n[nH]c(=O)c2ccccc12,–,inactive: 0.802%
C=CCc1cccc2cc(C(=O)Nc3ccc(NC(C)=O)cc3)c(=O)oc12,"inconclusive: 20.6 µM [activator, partial curve, poor fit]",–
O=C(Cn1c(=O)oc2ccccc21)Nc1ccc(S(=O)(=O)N2CCCCC2)cc1,"inconclusive: 32.6 µM [activator, partial curve, poor fit]",–
CCN(CC)c1ccc2nc3c4ccccc4c(=O)cc-3oc2c1,active: 0.82 µM,–
Cc1ccc(NC(=O)c2ccc(NS(=O)(=O)c3c(C)noc3C)cc2)cc1C,"inconclusive: 3.66 µM [activator, partial curve, poor fit]",–
NC(=O)CSc1nnc(-c2ccc3c(c2)OCO3)o1,"inconclusive: 7.3 µM [activator, partial curve]",–
Cc1csc2nc(COC(=O)c3cccc(N(C)C)c3)cc(=O)n12,"inconclusive: 2.59 µM [activator, full curve, poor fit]",–
Cc1ccc(/C=N/NC(=O)c2ccc(Br)o2)s1,"inconclusive: 18.4 µM [activator, partial curve]",–
CCOCCn1c(N2CCN(c3ccccc3)CC2)nc2c1c(=O)[nH]c(=O)n2C,"inconclusive: 16.4 µM [activator, single point]",–
O=c1oc2ccccc2cc1-c1nnc(-c2cccc(Br)c2)o1,"inconclusive: 8.91 µM [activator, partial curve]",–
N#CC1=C(SCC(=O)Nc2ccccc2)NC(=O)CC1c1ccc(O)cc1 (stereo not drawn),"inconclusive: 29.1 µM [activator, single point]",–
Cc1cc(C)c(C#N)c(SCc2nnc(-c3ccccc3[N+](=O)[O-])o2)n1,active: 2.59 µM,–
COc1ccc(C(=O)C2CCCN(C(=O)CCc3scnc3C)C2)c(C)c1 (stereo not drawn),"inconclusive: 4.11 µM [activator, full curve, poor fit]",–
COc1ccc2cnn(-c3ccccc3)c(=O)c2c1OC,"inconclusive: 23.1 µM [activator, partial curve, poor fit]",–
CSCc1c(C(=O)Nc2ccc(N3CCOCC3)cc2)oc2ccccc12,–,inactive: 5.37%
Cc1cc2nc(-c3ccc(SCc4ccccc4C#N)nc3)[nH]c2cc1C,"inconclusive: 2.91 µM [activator, partial curve, poor fit]",–
C/C(=N/OC(=O)CC(C)C)c1cc(-c2ccc(Cl)cc2)no1,"inconclusive: 20.6 µM [activator, partial curve]",–
CCS(=O)(=O)N1CCN(c2ccc(C(=O)NC34CC5CC(CC(C5)C3)C4)cc2[N+](=O)[O-])CC1,–,inactive: -2.81%
Cc1nc(NC(=O)c2cnccn2)ccc1Br,"inconclusive: 7.3 µM [activator, partial curve]",–
CCc1nnc(NC(=O)c2ccc(-c3ccccc3F)o2)s1,"inconclusive: 20.6 µM [activator, partial curve, poor fit]",–

Compound,Potency,"activity change, positive = activation"
CC(C)(C)NC(=O)C(=O)N/N=C/c1cccs1,"inconclusive: 11.6 µM [activator, partial curve, poor fit]",–
CC(C)CN(CC(C)C)C(=O)Nc1cccc([N+](=O)[O-])c1,–,inactive: -2.6%
O=[N+]([O-])C1=CC=C2C(=NC3(CCCCC3)N2O)C1=NCCc1ccccc1,"inconclusive: 29.1 µM [activator, single point]",–
Cc1c(Cl)cccc1NC(=O)c1cc(-c2ccco2)on1,"inconclusive: 20.6 µM [activator, single point]",–
COc1ccc2nc(NC(=O)c3cccnc3SC)sc2c1,"inconclusive: 23.1 µM [activator, partial curve, poor fit]",–
Cc1ccnc(N=O)c1,"inconclusive: 11.6 µM [activator, partial curve, poor fit]",–
COc1cc(OC)cc(C(=O)NC(C(=O)Nc2ccc3c(c2)OCCO3)C(C)C)c1 (stereo not drawn),–,inactive: 16.6%
Cc1ccc(C)c(OCc2cc(C(=O)N3CC[C@H](O)C3)no2)c1,"inconclusive: 14.6 µM [activator, partial curve]",–
O=C(OCc1cccc(F)c1)c1cc2ccccc2cc1O,–,inactive: 1.83%
CCn1cnc2cc(NC(=O)c3ccco3)ccc21,active: 18.4 µM,–
COc1cccc(C(=O)Nc2nnc(-c3ccccc3)s2)c1,"inconclusive: 6.51 µM [activator, partial curve]",–
CCOC(=O)Oc1ccc2c(=O)c(Oc3cccc(C)c3)coc2c1,"inconclusive: 32.6 µM [activator, partial curve, poor fit]",–
CCOCCCNC(=O)C1(O)c2ccccc2NC(=O)N1c1ccc(Cl)cc1 (stereo not drawn),–,inactive: 6.25%
Cc1ccc(C(=O)N2c3ccccc3CC2C)o1 (stereo not drawn),"inconclusive: 3.26 µM [activator, full curve]",–
COc1ccc(N/C=C2\CCc3ccccc3C2=O)cc1,"inconclusive: 0.184 µM [activator, full curve, poor fit]",–
CC(=O)Nc1ccc(NC(=O)c2cccc3ccccc23)cc1,–,inactive: -23.3%
Cc1cccc(N(CC(=O)Nc2ccc(-c3nc4ccc(C)cc4s3)cc2)S(C)(=O)=O)c1,"inconclusive: 5.17 µM [activator, partial curve, poor fit]",–
O=C(N/N=C/c1ccc(N2CCOCC2)cc1)c1cccs1,"inconclusive: 9.2 µM [activator, partial curve]",–
Cc1nc2ccccc2nc1N/N=C/c1ccc(O)cc1,"inconclusive: 20.6 µM [activator, partial curve, poor fit]",–
Cc1sc(NC(=S)NC(=O)C(C)(C)C)c(C(N)=O)c1C,"inconclusive: 18.4 µM [activator, partial curve, poor fit]",–
Cc1ccc(SCCSc2ncccn2)cc1,"inconclusive: 2.24 µM [activator, partial curve]",–
